Results reported in publication PMC9911399, “Two distinct binding modes provide the RNA-binding protein RbFox with extraordinary sequence specificity”.
Substitutions are numbered along the chain they refer to; changes in the protein carry UniProt numbers. The list shows a part of the results.

T1: RBFOX1 RRM (Homo sapiens, UniProt Q9NWB1 109-208)
T1 sequence: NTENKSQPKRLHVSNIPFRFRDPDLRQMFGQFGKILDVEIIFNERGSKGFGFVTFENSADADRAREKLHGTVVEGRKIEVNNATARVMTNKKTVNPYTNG

B1: ACGAUCC (DNA:RNA)
RNA: GGGAGACCGGAAUUCAGAUUGUCCACGAUCCUUAAAUCCCGUCGUAGCCACCA
DNA 1: CAATCTGAATTCCGGTCTCCC
DNA 2: TGGTGGCTACGACGGGATT
B2: UCACGAU (DNA:RNA)
RNA: B1 RNA with A25U, G27A, A28C, U29G, C30A, C31U
DNA 1: CAATCTGAATTCCGGTCTCCC
DNA 2: TGGTGGCTACGACGGGATT
B3: UCGACCC (DNA:RNA)
RNA: B1 RNA with A25U, U29C
DNA 1: CAATCTGAATTCCGGTCTCCC
DNA 2: TGGTGGCTACGACGGGATT
B4: UCGCGGC (DNA:RNA)
RNA: B1 RNA with A25U, A28C, U29G, C30G
DNA 1: CAATCTGAATTCCGGTCTCCC
DNA 2: TGGTGGCTACGACGGGATT
B5: UGGUGAG (DNA:RNA)
RNA: B1 RNA with A25U, C26G, A28U, U29G, C30A, C31G
DNA 1: CAATCTGAATTCCGGTCTCCC
DNA 2: TGGTGGCTACGACGGGATT
B6: GUGAGGA (DNA:RNA)
RNA: B1 RNA with A25G, C26U, U29G, C30G, C31A
DNA 1: CAATCTGAATTCCGGTCTCCC
DNA 2: TGGTGGCTACGACGGGATT
B7: GAUCUGG (DNA:RNA)
RNA: B1 RNA with A25G, C26A, G27U, A28C, C30G, C31G
DNA 1: CAATCTGAATTCCGGTCTCCC
DNA 2: TGGTGGCTACGACGGGATT
B8: AGUGGCA (DNA:RNA)
RNA: B1 RNA with C26G, G27U, A28G, U29G, C31A
DNA 1: CAATCTGAATTCCGGTCTCCC
DNA 2: TGGTGGCTACGACGGGATT
B9: AAGAUGC (DNA:RNA)
RNA: B1 RNA with C26A, C30G
DNA 1: CAATCTGAATTCCGGTCTCCC
DNA 2: TGGTGGCTACGACGGGATT
B10: GCCCAAA (DNA:RNA)
RNA: B1 RNA with A25G, G27C, A28C, U29A, C30A, C31A
DNA 1: CAATCTGAATTCCGGTCTCCC
DNA 2: TGGTGGCTACGACGGGATT
B11: AGGAGGG (DNA:RNA)
RNA: B1 RNA with C26G, U29G, C30G, C31G
DNA 1: CAATCTGAATTCCGGTCTCCC
DNA 2: TGGTGGCTACGACGGGATT
B12: GAUGAUU (DNA:RNA)
RNA: GGGAGACCGGAAUUCAGAUUGUCCGAUGAUUUUAAAUCCCGUCGUAGCCACCA
DNA 1: CAATCTGAATTCCGGTCTCCC
DNA 2: TGGTGGCTACGACGGGATT
B13: UAGACGU (DNA:RNA)
RNA: B1 RNA with A25U, C26A, U29C, C30G, C31U
DNA 1: CAATCTGAATTCCGGTCTCCC
DNA 2: TGGTGGCTACGACGGGATT
B14: GUUAAAG (DNA:RNA)
RNA: B12 RNA with A26U, G28A, U30A, U31G
DNA 1: CAATCTGAATTCCGGTCTCCC
DNA 2: TGGTGGCTACGACGGGATT
B15: AUCAAUC (DNA:RNA)
RNA: B1 RNA with C26U, G27C, U29A, C30U
DNA 1: CAATCTGAATTCCGGTCTCCC
DNA 2: TGGTGGCTACGACGGGATT
B16: GUCCGAU (DNA:RNA)
RNA: B12 RNA with A26U, U27C, G28C, A29G, U30A
DNA 1: CAATCTGAATTCCGGTCTCCC
DNA 2: TGGTGGCTACGACGGGATT
B17: GUCGAAU (DNA:RNA)
RNA: B12 RNA with A26U, U27C, U30A
DNA 1: CAATCTGAATTCCGGTCTCCC
DNA 2: TGGTGGCTACGACGGGATT
B18: AGAAAGU (DNA:RNA)
RNA: B1 RNA with C26G, G27A, U29A, C30G, C31U
DNA 1: CAATCTGAATTCCGGTCTCCC
DNA 2: TGGTGGCTACGACGGGATT
B19: UAUCAAC (DNA:RNA)
RNA: B12 RNA with G25U, G28C, U30A, U31C
DNA 1: CAATCTGAATTCCGGTCTCCC
DNA 2: TGGTGGCTACGACGGGATT
B20: UUAUUGC (DNA:RNA)
RNA: B1 RNA with A25U, C26U, G27A, A28U, C30G
DNA 1: CAATCTGAATTCCGGTCTCCC
DNA 2: TGGTGGCTACGACGGGATT
B21: ACACAAU (DNA:RNA)
RNA: B1 RNA with G27A, A28C, U29A, C30A, C31U
DNA 1: CAATCTGAATTCCGGTCTCCC
DNA 2: TGGTGGCTACGACGGGATT
B22: CCAUGUU (DNA:RNA)
RNA: B12 RNA with G25C, A26C, U27A, G28U, A29G
DNA 1: CAATCTGAATTCCGGTCTCCC
DNA 2: TGGTGGCTACGACGGGATT
B23: CAUGACG (DNA:RNA)
RNA: B12 RNA with G25C, U30C, U31G
DNA 1: CAATCTGAATTCCGGTCTCCC
DNA 2: TGGTGGCTACGACGGGATT
B24: AGAGGCU (DNA:RNA)
RNA: B1 RNA with C26G, G27A, A28G, U29G, C31U
DNA 1: CAATCTGAATTCCGGTCTCCC
DNA 2: TGGTGGCTACGACGGGATT
B25: AGUGAGC (DNA:RNA)
RNA: B12 RNA with G25A, A26G, U30G, U31C
DNA 1: CAATCTGAATTCCGGTCTCCC
DNA 2: TGGTGGCTACGACGGGATT
B26: AUCAAGC (DNA:RNA)
RNA: B1 RNA with C26U, G27C, U29A, C30G
DNA 1: CAATCTGAATTCCGGTCTCCC
DNA 2: TGGTGGCTACGACGGGATT
B27: UAAUCAU (DNA:RNA)
RNA: B12 RNA with G25U, U27A, G28U, A29C, U30A
DNA 1: CAATCTGAATTCCGGTCTCCC
DNA 2: TGGTGGCTACGACGGGATT
B28: UUACACC (DNA:RNA)
RNA: B1 RNA with A25U, C26U, G27A, A28C, U29A
DNA 1: CAATCTGAATTCCGGTCTCCC
DNA 2: TGGTGGCTACGACGGGATT
B29: GAACAGC (DNA:RNA)
RNA: B12 RNA with U27A, G28C, U30G, U31C
DNA 1: CAATCTGAATTCCGGTCTCCC
DNA 2: TGGTGGCTACGACGGGATT
B30: CGGAUCA (DNA:RNA)
RNA: B1 RNA with A25C, C26G, C31A
DNA 1: CAATCTGAATTCCGGTCTCCC
DNA 2: TGGTGGCTACGACGGGATT
B31: AAGGCGA (DNA:RNA)
RNA: B1 RNA with C26A, A28G, U29C, C30G, C31A
DNA 1: CAATCTGAATTCCGGTCTCCC
DNA 2: TGGTGGCTACGACGGGATT

molecular target: T1, RBFOX1 RRM; test: EMSA; HiTS-Eq, 1 nM pool, 10 min; buffer printed only for the single-RNA assays: 10 mM Tris pH 7.5, 150 mM NaCl, 3.4 mM EDTA, 0.001% NP-40, 30 C; settings: tags: His6 N-terminal (pET28a); label: 5' 32P
How it was run: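 These values rest on relative association constants, computed from read-count changes of each RNA species versus the control reaction and normalised to the cognate motif. Reads came from free RNA recovered by 8% native PAGE after purified RbFox RRM (wild type or mutant) at increasing concentrations was equilibrated for 10 min in 50 µL with 1 nM of a 5′-radiolabelled pool with 7 randomized nucleotides and DNA-annealed flanks.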

Row | Binder | binding signal
1 | B1 | 0.00383 KA relative to UGCAUGU
2 | B2 | 0.00446 KA relative to UGCAUGU
3 | B3 | 0.00775 KA relative to UGCAUGU
4 | B4 | 0.0101 KA relative to UGCAUGU
5 | B5 | 0.0183 KA relative to UGCAUGU
6 | B6 | 0.00402 KA relative to UGCAUGU
7 | B7 | 0.0222 KA relative to UGCAUGU
8 | B8 | 0.0151 KA relative to UGCAUGU
9 | B9 | 0.00903 KA relative to UGCAUGU
10 | B10 | 0.00663 KA relative to UGCAUGU
11 | B11 | 0.0138 KA relative to UGCAUGU
12 | B12 | 0.0183 KA relative to UGCAUGU
13 | B13 | 0.00788 KA relative to UGCAUGU
14 | B14 | 0.0151 KA relative to UGCAUGU
15 | B15 | 0.0024 KA relative to UGCAUGU
16 | B16 | 0.0163 KA relative to UGCAUGU

Row | Binder | binding signal
17 | B17 | 0.0126 KA relative to UGCAUGU
18 | B18 | 0.00913 KA relative to UGCAUGU
19 | B19 | 0.00504 KA relative to UGCAUGU
20 | B20 | 0.0198 KA relative to UGCAUGU
21 | B21 | 0.000254 KA relative to UGCAUGU
22 | B22 | 0.0119 KA relative to UGCAUGU
23 | B23 | 0.00578 KA relative to UGCAUGU
24 | B24 | 0.00967 KA relative to UGCAUGU
25 | B25 | 0.0157 KA relative to UGCAUGU
26 | B26 | 0.002 KA relative to UGCAUGU
27 | B27 | 0.00288 KA relative to UGCAUGU
28 | B28 | 0.00125 KA relative to UGCAUGU
29 | B29 | 0.00433 KA relative to UGCAUGU
30 | B30 | 0.0199 KA relative to UGCAUGU
31 | B31 | 0.00728 KA relative to UGCAUGU
